# Where a name gives a salt, the structure may show the parent alone. Out of some 1,500 compounds screened, about 30 (2%) showed activity.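 How the source made its calls: active = robust z-score below -2; a few such results were not called.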 This is one part of the list.
# Tested on: optoTopBP1 Flp-In 293 T-REx (HEK293) cells
# Assay: light-induced TopBP1 condensate (nuclear foci) count, plate-normalised robust z-score vs non-control wells; higher = more TopBP1 condensates (negative = condensation inhibitor), active = hit call of the paper
# Conditions: 10 µM; incubation time 2 h
row,Structure (SMILES),light-induced TopBP1 condensate (z-score)
1,COc1ccc(C(=O)c2ccc(C)cc2)c(O)c1 [Mexenone],inactive: 0.105
2,COc1cc(C(=O)NC2CCCNC2)cc(OC)c1OC (stereo not given) [Troxipide],inactive: -0.997
3,C[C@]12CC[C@@H]3c4ccc(O)cc4CC[C@H]3[C@@H]1CCC2=O [Estrone],inactive: -1.46
4,CN(C)[C@@H]1C(O)=C(C(N)=O)C(=O)[C@@]2(O)C(O)=C3C(=O)c4c(O)ccc(Cl)c4[C@@](C)(O)[C@H]3C[C@@H]12 [Chlortetracycline hydrochloride],inactive: 0.127
5,CC(=O)N(CC(C)C(=O)O)c1c(I)cc(I)c(N)c1I (stereo not given) [Iocetamic acid],inactive: -0.158
6,O=C(O)CCC(=O)Nc1ccc(S(=O)(=O)Nc2nccs2)cc1 [Succinylsulfathiazole],inactive: 0.522
7,COc1cnc(NS(=O)(=O)c2ccc(N)cc2)nc1 [Sulfameter],inactive: -0.26
8,Cc1cccc(CN2CCN(C(c3ccccc3)c3ccc(Cl)cc3)CC2)c1 (stereo not given) [Meclozine dihydrochloride],inactive: 0.405
9,CNCCC(Oc1ccccc1OC)c1ccccc1 (stereo not given) [Nisoxetine hydrochloride],inactive: -1.06
10,CCCCC(C)(O)C/C=C/[C@H]1[C@H](O)CC(=O)[C@@H]1CCCCCCC(=O)OC (mixture of isomers) [Misoprostol],inactive: 0.659
11,COc1ccccc1O [Guaiacol],inactive: 1.04
12,CCOC(=O)C1=C[C@]2(CC)CCCN3CCc4c(n1c1ccccc41)[C@@H]32 [Vinpocetine],inactive: -1.24
13,COc1ccc2cc([C@@H](C)C(=O)O)ccc2c1 [(R) -Naproxen sodium salt],inactive: 0.216
14,Nc1nc(=O)c2c([nH]1)NC[C@@H](CNc1ccc(C(=O)N[C@@H](CCC(=O)O)C(=O)O)cc1)N2C=O [Folinic acid calcium salt],inactive: 0.806
15,CC1(C)NC(=O)N(c2ccc([N+](=O)[O-])c(C(F)(F)F)c2)C1=O [Nilutamide],inactive: -0.806
16,CCCCC(CC)CNC(=N)NC(=N)NCCCCCCNC(=N)NC(=N)NCC(CC)CCCC (stereo not given) [Alexidine dihydrochloride],inactive: -0.446
17,COC(=O)[C@@H]1[C@H]2C[C@H]3c4[nH]c5ccccc5c4CCN3C[C@@H]2CC[C@@H]1O [Yohimbine hydrochloride],inactive: -0.184
18,CCS(=O)(=O)CCn1c([N+](=O)[O-])cnc1C [Tinidazole],inactive: 0.108
19,O=C1CCc2cc(OCCCCc3nnnn3C3CCCCC3)ccc2N1 [Cilostazol],inactive: -0.375
20,C/C(=C(\CCOC(=O)c1ccccc1)SS/C(CCOC(=O)c1ccccc1)=C(/C)N(C=O)Cc1cnc(C)nc1N)N(C=O)Cc1cnc(C)nc1N [Bisbentiamine],inactive: -1.63
21,O=P(O)(O)C(Cl)(Cl)P(=O)(O)O [Clodronate disodium],inactive: 0.665
22,CCCCOc1cc(C(=O)NCCN(CC)CC)c2ccccc2n1 [Dibucaine],inactive: 0.666
23,CCC1=C(C)CN(C(=O)NCCc2ccc(S(=O)(=O)NC(=O)N[C@H]3CC[C@H](C)CC3)cc2)C1=O [Glimepiride],inactive: 1.52

row,Structure (SMILES),light-induced TopBP1 condensate (z-score)
1,OCc1cc(C(O)CNCCCCCCOCCCCc2ccccc2)ccc1O (stereo not given) [Salmeterol],inactive: -0.58
2,O=C(O)Cc1sc(-c2ccccc2)nc1-c1ccc(Cl)cc1 [Fentiazac],inactive: 0.683
3,CC(=O)OCC(=O)[C@@]12N=C(C)O[C@@H]1C[C@H]1[C@@H]3CCC4=CC(=O)C=C[C@]4(C)[C@H]3[C@@H](O)C[C@@]12C [Deflazacort],inactive: -0.182
4,Cc1nc2n(c(=O)c1CCN1CCC(c3noc4cc(F)ccc34)CC1)CCCC2 [Risperidone],inactive: 0.778
5,CNCCC(Oc1ccc(C(F)(F)F)cc1)c1ccccc1 (stereo not given) [Fluoxetine hydrochloride],inactive: 0.51
6,CC(=O)Nc1ccc(CC(=O)O)cc1 [Actarit],inactive: -0.657
7,C[C@@H](CN1CC(=O)NC(=O)C1)N1CC(=O)NC(=O)C1 [Dexrazoxane hydrochloride],inactive: -0.035
8,CC(=O)N[C@H]1[C@H]([C@H](O)[C@H](O)CO)OC(C(=O)O)=C[C@@H]1NC(=N)N [Zanamivir],inactive: -0.513
9,CCN1CC(CCN2CCOCC2)C(c2ccccc2)(c2ccccc2)C1=O (stereo not given) [Doxapram hydrochloride],inactive: -0.469
10,O=C(c1cc(O)c(O)c(O)c1)c1ccc(O)c(O)c1O [Exifone],inactive: 0.683
11,CCCCNC(=O)NS(=O)(=O)c1ccc(C)cc1 [Tolbutamide],inactive: 0.285
12,O=C(O)c1cc(-c2ccc(F)cc2F)ccc1O [Diflunisal],inactive: -0.657
13,CCOC(=O)OC(C)OC1=C(C(=O)Nc2ccccn2)N(C)S(=O)(=O)c2ccccc21 (stereo not given) [Ampiroxicam],inactive: -1.41
14,CC(=O)[C@H]1CC[C@H]2[C@@H]3C[C@H](C)C4=CC(=O)CC[C@]4(C)[C@H]3[C@@H](O)C[C@]12C [Medrysone],inactive: 0.305
15,CCOc1ccccc1OCCN[C@H](C)Cc1ccc(OC)c(S(N)(=O)=O)c1 [(R)-Tamsulosin hydrochloride],inactive: 0.258
16,CCn1cc(C(=O)O)c(=O)c2cnc(N3CCCC3)nc21 [Piromidic acid],inactive: -0.517
17,O=S(=O)(O)CCS [Mesna],inactive: 0.139
18,CC(C)Nc1ncccn1 [Isaxonine],inactive: 1.54
19,OCCN1C[C@H](O)[C@@H](O)[C@H](O)[C@H]1CO [Miglitol],inactive: 0.315
20,CC(=O)Oc1cc2c(s1)CCN(C(C(=O)C1CC1)c1ccccc1F)C2 (stereo not given) [Prasugrel],inactive: -0.305
21,Cn1cnc([N+](=O)[O-])c1Sc1ncnc2[nH]cnc12 [Azathioprine],inactive: 0.922
22,CC(C)C(=O)Nc1ccc([N+](=O)[O-])c(C(F)(F)F)c1 [Flutamide],inactive: -0.417

# Reference: the supplement of paper PMC12582362
